Tests used:
[1] = target: T1, LRRK2(G2019S mutation, GST-LRRK2(amino acids 970-2527)) (Homo sapiens (Human), UniProt Q5S007, G2019S); experiment: LRRK2 Km ATP LanthaScreen Assay
[2] = target: T1, LRRK2(G2019S mutation, GST-LRRK2(amino acids 970-2527)); experiment: LRRK2 5 mM ATP LanthaScreen Assay; format: biochemical; conditions: mean IC50
Protocol: LRRK2 5 mM ATP LanthaScreen™ Assay
Results are analysed using Assay Data Analyzer. […] Results are analysed using Assay Data Analyzer.

[3] = read-out: LRRK2 IC50, Km ATP LanthaScreen Assay, mean IC50

CC1(Oc2ccc3[nH]nc(-c4cc(N5CCN(C(=O)C6CC6)CC5)ncn4)c3c2)CC1 [Example 40]
IC50 [1, 3]: 1.07 nM
IC50 [2]: 9 nM

CC1(Oc2ccc3[nH]nc(-c4cc(N5CCC6(CCCO6)CC5)ncn4)c3c2)CC1 [Example 25]
IC50 [1, 3]: 1.21 nM
IC50 [2]: 2.4 nM

CC1(Oc2ccc3[nH]nc(-c4cc(N5CCC6(CC5)CNC(=O)C6)ncn4)c3c2)CC1 [Example 38]
IC50 [1, 3]: < 0.6 nM
IC50 [2]: 5.1 nM

CO[C@@H]1CCN(c2cc(-c3n[nH]c4ccc(OC5(C)CC5)cc34)ncn2)C1 [Example 11]
IC50 [1, 3]: 1.85 nM
IC50 [2]: 12 nM

C[C@@H]1CN(c2cc(-c3n[nH]c4ccc(OC5(C)CC5)cc34)ncn2)C[C@H](C)N1C [Example T2]
IC50 [1]: 0.8 nM
IC50 [2]: 0.49 nM

CC1(Oc2ccc3[nH]nc(-c4cc(N5CCC(C(=O)O)CC5)ncn4)c3c2)CC1 [Example 10]
IC50 [1, 3]: 1.3 nM
IC50 [2]: 8.8 nM

From patent US9493440B2, “Compounds inhibiting leucine-rich repeat kinase enzyme activity” (Merck Sharp & Dohme Corp., priority 2013, dated 2016)
